Results taken from the BET-seq Pho4 binding data (Le et al. 2018).
Some of the results follow. These are noisy estimates, calculated here from bound and input reads.

Biological target: T1, Pho4 (S. cerevisiae) (UniProt P07270)
T1 sequence: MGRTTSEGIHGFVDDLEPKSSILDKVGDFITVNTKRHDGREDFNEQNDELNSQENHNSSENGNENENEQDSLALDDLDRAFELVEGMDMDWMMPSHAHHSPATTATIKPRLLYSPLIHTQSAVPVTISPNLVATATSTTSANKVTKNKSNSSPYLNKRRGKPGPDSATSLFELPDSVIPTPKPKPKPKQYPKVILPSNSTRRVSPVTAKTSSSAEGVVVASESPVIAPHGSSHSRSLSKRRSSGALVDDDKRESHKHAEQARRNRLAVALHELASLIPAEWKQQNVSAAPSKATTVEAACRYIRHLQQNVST
Assay: relative binding free energy (BET-seq); higher = weaker binding
Conditions: reference: library average

Row | Sequence | relative binding free energy [kJ/mol]
1 | TGGGGCACGTGTGGGC | 0
2 | CATGTCACGTGTCTGT | 0.962
3 | CGAAGCACGTGTGGGT | 0.0837
4 | GGGGGCACGTGTGACC | 0.251
5 | TGGGTCACGTGACGGA | 0.251
6 | TGTGGCACGTGAACAT | 0.502
7 | TGCTTCACGTGGGGAT | 0.502
8 | GGTGGCACGTGTTTCG | -0.335
9 | GTGTGCACGTGAACTT | 1.26
10 | TTATCCACGTGGGTTG | -0.167
11 | GCTAACACGTGTGGGT | 0.502
12 | ACGTGCACGTGTGAGG | -0.46
13 | TAGATCACGTGTATGA | 0.418
14 | GGTGGCACGTGGTTTA | -0.335
15 | TAGTACACGTGGTGTT | -0.0418
16 | TGGGTCACGTGTTAAA | 0.795
17 | ACAGTCACGTGTATTT | 0.879
18 | GAGGACACGTGTTGTA | 0.377
19 | GGATTCACGTGTGTCA | 1.42
20 | GGACGCACGTGGTGTA | -0.377
21 | TGTTGCACGTGTATAA | 0.0418
22 | TATGCCACGTGGGGTC | -0.544
23 | GTGGACACGTGGTATG | -0.167

Row | Sequence | relative binding free energy [kJ/mol]
24 | TGTTGCACGTGAGACG | 0.335
25 | TTTGTCACGTGGACCG | 0.377
26 | CTATTCACGTGGATGT | 1.13
27 | ATATTCACGTGGAGTT | 1.05
28 | GATTGCACGTGTATGG | 0.418
29 | AATGTCACGTGCGAGT | 0.335
30 | AGTTCCACGTGTGGGG | 0.669
31 | CGGCGCACGTGGGTGG | -0.711
32 | ATTGGCACGTGTTATG | -0.209
33 | TTTGTCACGTGGCGGA | -0.0418
34 | CGGTTCACGTGAGTTA | 1.92
35 | GGCGTCACGTGGGGCG | -0.0418
36 | AGGTCCACGTGAGGTA | 1.09
37 | TAGTACACGTGCGTGT | -0.293
38 | CAGAACACGTGTGGTT | 0.377
39 | GTGTACACGTGAGTTT | 0.837
40 | TGAAACACGTGGGTTG | -0.46
41 | TTATGCACGTGTGGAG | 0.335
42 | TGGTGCACGTGAGGTT | 1.21
43 | TTTTCCACGTGGGGGG | -0.46
44 | GGAGTCACGTGGAACG | 0.544
45 | TTTATCACGTGTCGCG | 0.418
46 | TGAGGCACGTGAACTT | 0.837

Row | Sequence | relative binding free energy [kJ/mol]
47 | GTATGCACGTGAGAGG | 0.335
48 | GTCGGCACGTGGTAGG | -0.795
49 | CTCTTCACGTGTGGTG | 0.586
50 | GTTGACACGTGTGAAA | 0.795
51 | AATTGCACGTGGAGTA | -0.209
52 | ATCTGCACGTGAGGAG | 1.3
53 | GGTTCCACGTGGTAAG | 0.502
54 | TTTGCCACGTGTGGGC | 0.418
55 | GGTTACACGTGAGTGA | 1.17
56 | TTGTCCACGTGGGGAT | -0.544
57 | TATTTCACGTGGATGA | 1.38
58 | GTGTACACGTGGATTT | 1
59 | TGCTACACGTGAGTTG | 1.55
60 | GTCTTCACGTGGTGTC | 0.753
61 | TTCTGCACGTGAGGGA | 1.26
62 | GGGCTCACGTGGGTTT | 1
63 | TGTTTCACGTGTAACA | 1.42
64 | GTCAGCACGTGTGTAG | 0.126
65 | GAATACACGTGTAGTA | 1.21
66 | CTTGTCACGTGTTCGT | 0.335
67 | GGAGCCACGTGTGTGA | -0.0837
68 | TATAGCACGTGGCGGT | -0.795
69 | GGTTACACGTGAAATA | 1.76

Row | Sequence | relative binding free energy [kJ/mol]
70 | GGCAGCACGTGGGCAG | -0.795
71 | GTTTGCACGTGCGATA | 0.209
72 | AAGGGCACGTGATCGT | -0.544
73 | GTTAACACGTGATGTG | 0.628
74 | AGGGTCACGTGTTACT | 0.544
75 | ATGGGCACGTGTTGCA | -0.586
76 | GTTACCACGTGATTGT | 0.167
77 | GTAATCACGTGCGGGT | 1.21
78 | TTGCACACGTGGTAGT | -0.126
79 | TATTACACGTGTTTTT | 0.209
80 | TTTAGCACGTGGGAGT | -0.335
81 | CTGGGCACGTGCAGGT | -0.293
82 | TGTGGCACGTGTGTTT | -0.0837
83 | CTTGACACGTGTATGT | 0.209
84 | TGTTGCACGTGTTATT | -0.335
85 | AGTTGCACGTGGTAAG | -0.879
86 | TGTCTCACGTGGAATT | 1.21
87 | ATTTACACGTGGTATA | -0.46
88 | AAAGTCACGTGATTTA | 0.837
89 | TAGGGCACGTGATTAG | -0.46
90 | CAATGCACGTGGGGGC | -0.544
91 | ATATGCACGTGATCGG | 0
92 | CGGATCACGTGTGTGT | 0.586

Row | Sequence | relative binding free energy [kJ/mol]
93 | GTGGTCACGTGCTTAG | 0.418
94 | TATTCCACGTGGGAGG | 0.0837
95 | TTTGGCACGTGTGTTC | 0
96 | GGTATCACGTGATAGA | 1.8
97 | TGGTACACGTGGTGTC | -0.293
98 | CAGGGCACGTGGGAGT | -0.795
99 | AGGGGCACGTGATTTT | -0.0418
100 | TATGTCACGTGGTGGC | -0.0418
101 | GTTTGCACGTGGTAGG | 0.126
102 | GATTTCACGTGTAAAT | 1.63
103 | GCGGCCACGTGGGGCG | -1
104 | GGAGTCACGTGGGAAT | 0.251
105 | CTGGGCACGTGGGATG | -1.3
106 | GTGGGCACGTGCGTAC | -0.586
107 | TACTGCACGTGCGTTT | 0.167
108 | GTTAGCACGTGGAAAT | 0.837
109 | TTGAACACGTGTTGAT | -0.335
110 | ATGGGCACGTGGGATC | -0.0837
111 | CTAGGCACGTGAGTTA | 0.167
112 | GTGAGCACGTGGGAAA | 0
113 | GGCTGCACGTGGGGCC | -0.251
114 | TGGTACACGTGGTTAA | 0.502
115 | TGGGGCACGTGGAGAG | -0.46
